Inhibition data for 61 compounds are collected here from PubChem BioAssay AID485344 (National Center for Advancing Translational Sciences (NCATS), 2010).

In all, about 340,000 compounds went through this assay and about 6,900 (2%) were called active. No stated cut-off is given here; in the data, active means inhibition above about 30%; inactive means below that, where a call was filed. The entries are a selection whose mix differs from that of the whole data set. The source gives no active or inactive call for entries shown without one.

The term inhibition denotes the drop in the measured response relative to a control, in per cent.

The target in the assay is D(2) dopamine receptor (Homo sapiens) (UniProt P14416). Nature of the assay: HTS Assay for Allosteric Antagonists of the Human D2 Dopamine Receptor: Primary Screen for Antagonists. Further: 0% is about no effect. Particulars: HEK293 TREx D2 cells, calcium flux, dopamine EC80; at 10 µM; stronger effect = higher value. A digest of the protocol: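 Read-out: kinetic calcium fluorescence (1 cycle/s) in inducible HEK293 T-REx D2 cells after an EC80 dopamine addition that followed 180 s compound preincubation. Loss of the dopamine response indicates antagonism.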
UniProt P14416, sequence (P14416 whole entry, looked up): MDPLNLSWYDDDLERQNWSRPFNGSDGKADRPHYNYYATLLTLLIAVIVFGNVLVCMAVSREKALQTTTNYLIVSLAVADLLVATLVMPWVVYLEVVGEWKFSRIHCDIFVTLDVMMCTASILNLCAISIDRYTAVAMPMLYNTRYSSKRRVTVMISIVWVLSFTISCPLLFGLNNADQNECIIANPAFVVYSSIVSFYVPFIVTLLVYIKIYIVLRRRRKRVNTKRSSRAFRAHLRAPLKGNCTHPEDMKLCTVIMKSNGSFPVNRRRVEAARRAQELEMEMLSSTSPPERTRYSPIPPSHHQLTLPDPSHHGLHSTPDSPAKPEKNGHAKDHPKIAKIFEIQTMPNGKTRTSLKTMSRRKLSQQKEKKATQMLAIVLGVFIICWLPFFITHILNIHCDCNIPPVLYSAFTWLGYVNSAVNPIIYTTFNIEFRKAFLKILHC
A general note: A change in cytosolic calcium serves as a functional read-out for many receptors and channels.
Take `COc1ccc(S(=O)(=O)N2CCN(c3ccccc3OC)CC2)cc1-c1noc(C)n1`: the inhibition amounted to 13.5%.

In the case of `Cc1ccc(-c2nc3ccccc3n3c(-c4ccccc4)c4c(=O)n(C)c(=O)n(C)c4c23)cc1`, the inhibition was -6.67%.

As for `Cc1ccc(Cn2c(-c3ccccc3)nc3ccccc32)cc1`, the inhibition was determined as 2.21%.

For the compound `COc1cc(/C=C(\C#N)c2nc3ccccc3c(=O)[nH]2)cc(OC)c1OC`, the inhibition was -5.22%.

On to `COc1cc(OC)c(NC(=O)c2cc(CN3CCOCC3)on2)cc1Cl`, for which the inhibition was 3.65%.

Regarding `CCn1ccc2cc(S(=O)(=O)N3CCC(C(=O)NCc4cccc(C)c4)CC3)ccc21`, the inhibition is 3.54%.

For the compound `Cc1cccc(N(C(=O)c2sc(C)nc2C)C(C(=O)NCc2ccco2)c2ccccc2)c1` (stereo unspecified), the inhibition is active: 45.5%.

Regarding `Cc1ccc(C)c(Cn2c(=O)n(CCCCC(=O)NCc3ccccc3Cl)c(=O)c3ccccc32)c1`, the inhibition was 12.3%.

Take `OCC1(Cc2ccccc2)CCCN(Cc2ccc(-c3ccco3)cc2)C1` (stereo unspecified): the inhibition is active: 54.2%.

As for `CCOc1ccccc1NC(=O)Cn1ccn(-c2ccccc2)c(=O)c1=O`, the inhibition is -5.96%.

As to `CCCCNC(=O)c1cc(Sc2ccc(OCC)cc2)nc2ccccc12`, the inhibition is -8.81%.

In the case of `CCOc1cccc(C2c3c(oc4ccc(F)cc4c3=O)C(=O)N2CCc2ccc(OC)cc2)c1` (stereo unspecified), the inhibition worked out at 8.75%.

With `COc1ccc(NC(=O)c2nnn(Cc3nc(-c4cc(Br)ccc4OC)oc3C)c2C)cc1`, the inhibition amounted to 10.3%.

On to `Cc1ccc(CN(C(=O)Nc2cccc(Cl)c2)c2ccccn2)cc1`, for which the inhibition is -18.9%.

With `CCNC(=O)Cn1c(-c2cccs2)cc2ccccc21`, the inhibition was -6.32%.

In the case of `COc1ccc(Nc2cc(C(=O)NC3CCCC3)c3ccccc3n2)c(OC)c1`, the inhibition was -12%.

`O=C(N/N=C/c1cc2c(cc1Br)OCO2)c1cc2ccccc2o1`: the inhibition was active: 79.9%.

`COc1cccc(/C=C/C(=O)Nc2ccc(C(=O)Nc3cccc(S(N)(=O)=O)c3)cc2)c1OC`: the inhibition is active: 77.1%.

For the compound `COc1ccc(NC(=O)C2CCN(S(=O)(=O)c3ccc4c(c3)CCCC(=O)N4)CC2)cc1Cl`, the inhibition was found to be 6.24%.

On to `CCN(CC)C1=CC2=CC(=C(C#N)C#N)CCC2CC1` (stereo unspecified), for which the inhibition was active: 75.6%.

With `O=C(CSc1nc(=O)[nH]c2c1CCCC2)Nc1ccccc1C(F)(F)F`, the inhibition came to 5.29%.

For the compound `CCOC(=O)C1CCN(CCC(=O)Nc2ccc(Br)c(C)c2)CC1`, the inhibition came to 18.9%.

Turning to `Cc1ccc(NC(=O)C(NS(=O)(=O)c2ccc3c(c2)CCC(=O)N3)c2ccccc2)cc1C` (stereo unspecified), the inhibition is -13.5%.

`CCOc1ccc(CNC(=O)c2ccc(-c3nc(CS(=O)(=O)c4ccccc4)c(C)o3)cc2)cc1`: the inhibition was -24.2%.

`Cc1nn2c(=O)cc(COC(=O)c3ccc(NC(=O)C4CCCCC4)cc3)nc2s1`: the inhibition is -1.08%.

Consider `Cc1ccc(NC(=O)Cn2c(=O)n(CCCCC(=O)NCCc3ccccc3)c(=O)c3ccccc32)c(C)c1`, for which the inhibition was 17.1%.

In the case of `O=C(Nc1ccc(F)cc1F)c1cc(-c2ccccc2O)no1`, the inhibition was 14%.

Take `COc1cc(NC(=O)Cn2nc(C(F)(F)F)c3c2CCCC3)c(OC)cc1Cl`: the inhibition was -2.72%.

Consider `CCCCOC(=O)c1ccc(NC(=O)c2cc3c(=O)n4cccc(C)c4nc3n2C)cc1`, for which the inhibition stood at 9.52%.

As to `COCCNC(=O)CCCn1c(=O)c2cc(OC)c(OC)cc2n(CC(=O)Nc2ccc(F)cc2)c1=O`, the inhibition stood at 5.44%.

Regarding `O=C(NCC(c1ccc(F)cc1)N1CCOCC1)c1nn(-c2ccccc2)c(=O)c2ccccc12` (stereo unspecified), the inhibition was active: 69.8%.

Regarding `Cc1ccc(CNS(=O)(=O)c2ccc3c(c2)CCN3S(C)(=O)=O)cc1`, the inhibition came out at 4.11%.

On to `COc1ccc(-c2cn3nc(N4CCC(C(=O)Nc5cccc(C)c5C)CC4)sc3n2)cc1`, for which the inhibition is 8.21%.

For `COc1ccc(N(CC(=O)N2CCN(c3cccc(C)c3C)CC2)S(=O)(=O)c2c(C)noc2C)cc1`, the inhibition is -13%.

For `COc1ccc2nc(N(Cc3cccnc3)C(=O)c3ccc4c(c3)OCCO4)sc2c1`, the inhibition is -2.72%.

As for `CCCSc1ncc(Cl)c(C(=O)Nc2sc3c(c2C(=O)NCCOC)CCCC3)n1`, the inhibition worked out at 3.77%.

In the case of `Cc1c(Cl)cccc1NC(=O)CSc1nc(=O)n(Cc2ccccn2)c2c1CCC2`, the inhibition was found to be 9.89%.

Turning to `CC1Cc2ccccc2N1C(=O)C12CCC(C)(C(=O)C1)C2(C)C` (stereo unspecified), the inhibition is active: 32%.

Consider `CCOC(=O)CSc1nc(C)nc2c1sc1nc(C)c(C(C)=O)c(-c3ccc(OC)cc3)c12`, for which the inhibition is active: 39.6%.

Turning to `Cc1ccc2occ(CN3CCN(c4ccccc4)CC3)c(=O)c2c1`, the inhibition was active: 67.4%.

With `Cc1nn2c(=O)cc(COC(=O)c3cccc(NC(=O)c4cccs4)c3)nc2s1`, the inhibition is -0.102%.

Regarding `Cc1cccc(N(C)S(=O)(=O)c2cc3c(cc2Cl)NC(=O)CO3)c1`, the inhibition was -2.28%.

On to `CCOc1ccc(NS(=O)(=O)c2ccc3[nH]c4c(c3c2)CCCC4)cc1`, for which the inhibition was 1.72%.

Take `COCCn1c(=O)[nH]c2cc(C(=O)NCCN3CCN(c4cccc(Cl)c4)CC3)ccc2c1=O`: the inhibition is active: 87.3%.

With `CCn1c(SCCOc2ccccc2F)nc2ccccc21`, the inhibition was -11.9%.

On to `CCOc1ccccc1C(=O)Nc1ccc2c(c1)N(C)C(=O)c1ccccc1S2`, for which the inhibition was found to be 21.1%.

With `CCN(CC(=O)Nc1cc(Cl)ccc1C)C(=O)COc1ccccc1F`, the inhibition was active: 39.9%.

In the case of `Cc1nn(-c2ccc(N3CCOCC3)nn2)c(C)c1CCC(=O)NCc1ccc(OC(C)C)cc1`, the inhibition amounted to 11.7%.

`Cc1c(C2=CCN(S(=O)(=O)c3ccc(CC(C)C)cc3)CC2)c2ccccc2n1CC(=O)N1CCCC1`: the inhibition was -2.02%.

On to `COc1ccc(C(=O)N(Cc2ccc(C(C)C)cc2)C2CCS(=O)(=O)C2)cc1` (stereo unspecified), for which the inhibition was 5.49%.

Turning to `Cc1nc2nc(SCC(=O)NCCc3ccccc3)nn2c(C)c1Cc1c(F)cccc1Cl`, the inhibition was 3.22%.

Take `Cc1ccccc1CNS(=O)(=O)c1csc(C(N)=O)c1`: the inhibition turned out to be 1.9%.

Regarding `Cc1ccc(C(C)C)c(OCC(=O)N2CCC(c3nc4ccccc4o3)CC2)c1`, the inhibition came out at 3.76%.

With `Nc1c(C(=O)c2ccc(Br)s2)oc2ccccc12`, the inhibition is active: 44.8%.

For `O=C(CCN1C(=O)COc2ccccc21)NCCN1CCN(c2ccccc2F)CC1`, the inhibition is active: 44.7%.

Take `COc1ccccc1CNC(=O)C1CCCN(c2nnc(-n3c(C)ccc3C)s2)C1` (stereo unspecified): the inhibition was -0.813%.

`CC1=C(C(=O)OCC2CCCCC2)C(c2ccccc2F)CC(=O)N1` (stereo unspecified): the inhibition was 15.1%.

Consider `Cc1ccc(C)c(NC(=O)CN2C(=O)COc3ccc(Cl)cc32)c1`, for which the inhibition was 0.495%.

For the compound `Cn1c(=O)nc2n(-c3ccc(Cl)c(Cl)c3)c3cc(Cl)ccc3cc-2c1=O`, the inhibition was -5.26%.

For the compound `CCCCNC(=O)NS(=O)(=O)c1ccc(C)cc1`, the inhibition was active: 33.2%.

`O=C(Nc1c(C(=O)Nc2ccc(F)cc2)oc2ccccc12)c1ccccc1F`: the inhibition was found to be 5.06%.
